Source: PubChem BioAssay AID624417 (National Center for Advancing Translational Sciences (NCATS), 2012)
Several values for one entry are separate records, joined by “and”; a condition that tells them apart may be missing. Equal entries are not always repeated. Screen size: about 410,000 compounds; about 6,400 (1.6%) were called active. Inconclusive results, whose numbers are uncertain, are shown with a selection of clear calls. Calls follow the shape of the dose curve; as a rule, active = well fitted inhibition curve with a large enough effect; inconclusive = small, poorly fitted or top-dose-only effect; inactive = no such curve, though single readings can be large or run the other way. A potency beside an inconclusive call is a rough fit, not a confirmed value.
% is scaled to controls: 0 for no effect and ±100 for the full control effect; potency is read from the fitted curve at half-maximal effect; tags tell the direction and shape of the fitted curve.
Also: nearly all actives have a fitted effect of over 55% in size.

Each compound was assayed against Glucagon-like peptide 1 receptor (Homo sapiens) (UniProt P43220) (assay: qHTS of GLP-1 Receptor Inverse Agonists (Inhibition Mode)). Conditions: HEK293 GLP-1R CRE-luciferase, luminescence, 24 h, GLP-1R form is constitutively active; activity change, negative = inhibition: at 38.3 µM (top of the series) unless noted.
Sequence of UniProt P43220 (P43220 whole entry, looked up): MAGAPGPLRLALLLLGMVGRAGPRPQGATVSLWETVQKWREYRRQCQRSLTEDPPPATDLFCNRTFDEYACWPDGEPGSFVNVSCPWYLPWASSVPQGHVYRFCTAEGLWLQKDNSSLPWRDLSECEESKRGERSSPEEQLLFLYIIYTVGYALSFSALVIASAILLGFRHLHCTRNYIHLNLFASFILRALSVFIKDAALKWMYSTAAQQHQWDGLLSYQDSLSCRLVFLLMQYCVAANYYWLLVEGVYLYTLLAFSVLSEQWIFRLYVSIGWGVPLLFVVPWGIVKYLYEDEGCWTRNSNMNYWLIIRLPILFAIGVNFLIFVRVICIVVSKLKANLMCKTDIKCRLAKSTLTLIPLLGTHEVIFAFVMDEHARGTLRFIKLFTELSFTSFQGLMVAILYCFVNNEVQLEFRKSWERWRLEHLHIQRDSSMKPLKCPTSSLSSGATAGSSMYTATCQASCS
Method in brief: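 Inverse agonism was detected as reduced cAMP-driven luciferase luminescence after 24 h compound treatment. The cells were HEK293 clones expressing constitutively active human GLP-1R with the reporter. Reporter-only and GPR119 cell lines served as counterscreen controls.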
In the case of Brc1ccc(-c2csc3ncnc(-n4nnc5ccccc54)c23)cc1, the Potency is reported as inconclusive: 10 µM [inhibitor, single point].
CCc1cccc(C)c1Nc1c(-c2ccc(F)cc2)nc2sccn12 was tested, and the Potency was inconclusive: 12.6 µM [inhibitor, single point].
COc1ccc(Cn2c(SCc3ccc(C(=O)NC4CCCCC4)cc3)nc3ccncc32)cc1 was tested, and the Potency was inconclusive: 12.6 µM [inhibitor, single point].
In the case of COc1ccc(NC(=O)C23CC4CC(C2)CC(n2cnc(Br)n2)(C4)C3)cc1Cl, the Potency is reported as inconclusive: 28.2 µM [inhibitor, single point].
In the case of COC(=O)c1c(NC(=O)C(=O)N2CCCCC2)sc2c1CC(C)(C)OC2, the Potency is reported as inconclusive: 11.2 µM [inhibitor, single point].
For O=C(Nc1ccc(Cl)cn1)c1cccc2ccccc12, the Potency was inconclusive: 5.62 µM [inhibitor, full curve, poor fit].
For CSc1ccc(CN2CCN(C(=O)c3ccc([N+](=O)[O-])cc3)CC2)cc1, the Potency was inconclusive: 7.94 µM [inhibitor, partial curve, poor fit].
With CCOC(=O)c1scc(-c2ccccc2)c1S(=O)(=O)Nc1ccccc1OC the Potency was inconclusive: 10 µM [inhibitor, partial curve].
In the case of CC(C)CC(C(=O)OCC(=O)N1CCN(c2ccccc2)CC1)N1C(=O)c2ccccc2C1=O (centres undefined), the Potency is reported as inconclusive: 28.2 µM [inhibitor, single point].
With N#Cc1nc(-c2ccc(COc3ccc(Cl)cc3)o2)oc1N1CCCCC1 the Potency was inconclusive: 10 µM [inhibitor, partial curve].
O=C(CNS(=O)(=O)c1ccc(Cl)c(C(F)(F)F)c1)NC1CCCCCC1 was tested, and the Potency was inconclusive: 7.94 µM [inhibitor, partial curve, poor fit].
In the case of Cc1ccc(C)c(N2CCN(S(=O)(=O)c3ccc4[nH]c5c(c4c3)CCCC5)CC2)c1, the Potency is reported as inconclusive: 10 µM [inhibitor, single point].
In the case of COc1ccccc1/C=N/NC(=O)c1nnn(-c2nonc2N)c1CN(C)c1ccccc1, the Potency is reported as inconclusive: 14.1 µM [inhibitor, single point].
With CCC1(c2ccc(F)cc2)NC(=O)N(CC(=O)NCc2ccc(C)cc2)C1=O (centres undefined) the Potency was inconclusive: 28.2 µM [inhibitor, single point].
N/C(=N\OC(=O)CCn1cccc(C(F)(F)F)c1=O)c1ccc(Cl)cc1 was tested, and the Potency was inconclusive: 22.4 µM [inhibitor, single point].
For O=C(COc1ccccc1)N(CCc1ccccc1)c1nc(-c2ccc(F)cc2)cs1, the Potency was inconclusive: 11.2 µM [inhibitor, partial curve, poor fit].
With CC1(C)C(C=C(Cl)Cl)C1C(=O)N1CCN(c2ccccc2)CC1 (centres undefined) the Potency was inconclusive: 28.2 µM [inhibitor, single point].
For CCOc1ccc(OCCC(=O)OCC(=O)N2CCN(S(=O)(=O)c3ccc(Cl)cc3)CC2)cc1, the Potency was inconclusive: 28.2 µM [inhibitor, single point].
With O=S(=O)(CCSc1nc2ccccc2o1)c1nc2ccccc2s1 the “activity change, negative = inhibition” value was inactive: -4.18%.
COc1ccc(CN2CCCC(N3CCN(c4cccc(Cl)c4)CC3)C2)cc1OC (centres undefined) was tested, and the Potency was inconclusive: 12.6 µM [inhibitor, single point].
In the case of CCN(CC)C(=O)[C@H]1CC(CC(=O)NCCC2=CCCCC2)C(=O)N2CCc3c([nH]c4ccccc34)[C@]12C (some centres undefined), the Potency is reported as inconclusive: 14.1 µM [inhibitor, partial curve, poor fit].
With Cc1ccccc1CNC(=O)Cn1nc(C)c2nn(-c3ccc(Cl)cc3)c(C)c2c1=O the “activity change, negative = inhibition” value was inactive: -8.32%.
For CC(C)=NOc1cc(NC(=O)CCl)cc([N+](=O)[O-])c1, the Potency was inconclusive: 28.2 µM [inhibitor, single point].
In the case of O=C(NCCc1ccc([N+](=O)[O-])cc1)c1ccccc1, the “activity change, negative = inhibition” value is reported as inactive: 4.34%.
In the case of COc1cccc(-c2ccc(-c3noc(-c4ccccc4F)n3)c(OC)n2)c1, the “activity change, negative = inhibition” value is reported as inactive: -6.76%.
With CCCN(CCC)CCCNC(=O)c1cc2c(=O)[nH]c3ccccc3c2s1 the “activity change, negative = inhibition” value was inactive: -8.69%.
With CSc1ccc(CN(C)C(C)C(=O)Nc2ccc(F)c(F)c2F)cc1 (centres undefined) the Potency was inconclusive: 31.6 µM [inhibitor, single point].
In the case of O=C(c1ccc(CS(=O)c2cccc(Cl)c2)o1)N1CCN(c2ccccn2)CC1 (centres undefined), the Potency is reported as inconclusive: 6.31 µM [inhibitor, partial curve, poor fit].
For Cc1ccc(-c2nc3c4ccccc4ccn3c2CN2CCCCC2)cc1, the Potency was inconclusive: 8.91 µM [inhibitor, partial curve, poor fit].
In the case of CCCc1nc(SCc2ccccn2)c2c(=O)n(C)c(=O)n(C)c2n1, the Potency is reported as inconclusive: 28.2 µM [inhibitor, single point].
With O=C(C[n+]1cc(Br)cc2ccccc21)c1ccc(F)cc1 the Potency was inconclusive: 28.2 µM [inhibitor, single point].
With Fc1ccccc1COc1cccc2cccnc12 the “activity change, negative = inhibition” value was inactive: -24%.
In the case of CCn1c(SCC(=O)N2c3ccccc3Sc3ccccc32)nc2c1c(=O)n(C)c(=O)n2C, the “activity change, negative = inhibition” value is reported as inactive: 0%.
In the case of CN(CCOCCOc1ccc2ccccc2c1)Cc1ccccc1, the Potency is reported as inconclusive: 17.8 µM [inhibitor, partial curve, poor fit].
With Cc1onc(-c2ccccc2)c1C(=O)N[C@@H]1C(=O)N2C1SC(C)(C)[C@@H]2C(=O)O (some centres undefined) the “activity change, negative = inhibition” value was inactive: 8.68%.
With Cc1cccc(CNC(=O)c2ccc3c(c2)N(C)CCS3)c1 the Potency was inconclusive: 11.2 µM [inhibitor, partial curve, poor fit] and inconclusive: 7.94 µM [inhibitor, partial curve, poor fit].
With O=C(NCCc1ccc(C(F)(F)F)cc1)C1CCC(=O)N(CCc2cccc(F)c2)C1 (centres undefined) the Potency was inconclusive: 12.6 µM [inhibitor, single point].
In the case of CCCCOc1cccc(C(=O)NC(=S)Nc2cccc(C(F)(F)F)c2)c1, the Potency is reported as inconclusive: 11.2 µM [inhibitor, partial curve, poor fit].
In the case of CCc1ccc(C(c2ccccc2)c2c(C)[nH]c3ccccc23)s1 (centres undefined), the Potency is reported as inconclusive: 12.6 µM [inhibitor, partial curve, poor fit].
